According to the supplement of paper PMC4723716:
± gives the uncertainty stated by the source. In all, about 9,900 compounds were measured (“viability index relative to DMSO control”: median about 1, lowest 2% from about 0.85 on). The list shows a part of the results.

Tested on: Plasmodium falciparum NF54 stage V gametocytes
Assay: viability index relative to DMSO control (fraction); higher = less gametocyte killing
Conditions: 2.5 µM, incubation time: 72 h
Outline: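 In 1,536-well plates, 10 µl of serum-free medium holding P. falciparum NF54 stage V gametocytes (0.75% gametocytemia, 1.25% hematocrit) received compound at 2.5 µM for 72 hr at 37°C in low oxygen. After one to two hours with 3 µl of 2.5 µM MitoTracker Red CMXRos containing 0.13% saponin, red particles of 20–70 µm2 were counted in a single field per well. Viability index is reported as the particle count over the plate mean of wells treated with solvent only.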

[1] = library set: Broad Institute DOS
[2] = library set: Broad Institute Blood Stage

| SMILES | viability index [1] | viability index [2] |
| --- | --- | --- |
| CCS(=O)(=O)NCC[C@@H]1CC[C@@H](NS(=O)(=O)c2ccccc2C)[C@H](CO)O1 | 1.13 ± 0.05 |  |
| Cc1ccc(S(=O)(=O)Nc2ccc3c(c2)C(=O)N([C@@H](C)CO)C[C@H](C)[C@H](CN(C)S(=O)(=O)c2cccs2)OCCCC[C@H](C)O3)cc1 | 1.05 ± 0.028 |  |
| CNC(=O)C[C@@H]1CC[C@@H]2[C@H](COc3ccc(NS(=O)(=O)c4ccc(F)cc4)cc3C(=O)N2C)O1 | 1.09 ± 0.014 |  |
| CO[C@H]1CN(C)C(=O)c2cc(NC(=O)c3cccc(F)c3)ccc2OC[C@@H](C)N(C)C[C@@H]1C | 1.02 ± 0.048 |  |
| COc1cccc(-c2ccc3c(c2)[C@@H]2[C@@H](CCN2C(=O)c2ccccc2F)[C@H](CO)N3C)c1 | 0.878 ± 0.1 |  |
| CNC(=O)C[C@@H]1CC[C@H]2[C@@H](COc3ccc(NS(=O)(=O)c4ccc(F)cc4)cc3C(=O)N2C)O1 | 0.925 ± 0.093 |  |
| CCCC#Cc1ccc([C@H]2[C@@H](CO)N3C(=O)CN(C(=O)c4cccnc4)C[C@@H]23)cc1 | 1.024 ± 0.0042 |  |
| COc1ccc(NC(=O)N(C)C[C@@H]2OCc3cnnn3CCCC(=O)N([C@H](C)CO)C[C@@H]2C)c(OC)c1 | 1.05 ± 0.062 |  |
| C(=C\c1ccc([C@H]2[C@H]3CNC[C@@H]2N3Cc2nccs2)cc1)/c1ccccc1 | 1.02 ± 0.0043 |  |
| COc1ccccc1C(=O)Nc1ccc2c(c1)C(=O)N(C)C[C@@H](OC)[C@@H](C)CN(C(C)=O)[C@H](C)CO2 | 1.11 ± 0.021 |  |
| C[C@@H]1CN([C@@H](C)CO)C(=O)c2cccc(NC(=O)NC3CCCCC3)c2O[C@H]1CN(C)Cc1ccc(C(F)(F)F)cc1 | 0.934 ± 0.059 |  |
| CO[C@H]1CN(C)C(=O)c2cc(NC(=O)C3CC3)ccc2OC[C@H](C)N(Cc2cc(F)ccc2F)C[C@@H]1C | 0.984 ± 0.034 |  |
| O=C(NCC1CC1)[C@H]1[C@H](CO)[C@H]2Cn3c(ccc(-c4cccnc4)c3=O)[C@H]2N1Cc1cocn1 | 1.04 ± 0.032 |  |
| CN1CCN(C(=O)C[C@@H]2CC[C@@H]3[C@H](COC[C@@H](O)CN3C(=O)c3ccccc3F)O2)CC1 | 1.014 ± 0.0032 |  |
| C[C@@H]1CN([C@@H](C)CO)C(=O)c2cc(NS(=O)(=O)c3cn(C)cn3)ccc2O[C@@H](C)CCCCO[C@H]1CN(C)Cc1ccc2c(c1)OCO2 | 1.06 ± 0.092 |  |
| CNC[C@H]1OCCCC[C@H](C)Oc2ccc(NS(=O)(=O)c3ccc(F)cc3)cc2C(=O)N([C@H](C)CO)C[C@H]1C | 0.966 ± 0.11 |  |
| O=C(Cc1cccnc1)N1CC(=O)N2[C@H](C1)[C@H](c1ccc(C#CC3CCCCC3)cc1)[C@@H]2CO | 0.925 ± 0.034 |  |
| C/C=C/c1ccc([C@H]2[C@@H](CO)N(C(C)=O)C23CN(C(=O)NC2CCCCC2)C3)cc1 | 1.03 ± 0.078 |  |
| O=C(N[C@@H]1C=C[C@@H](CC(=O)N2CCC(Cc3ccccc3)CC2)O[C@@H]1CO)c1cnccn1 | 0.9641 ± 0.0034 |  |
| C[C@H](CO)N1C[C@H](C)[C@@H](CN(C)C(=O)[C@@H](Cc2ccccc2)N(C)C)OCc2ccccc2-c2c(n(C)c3ccccc23)C1=O | 1.01 ± 0.15 |  |
| CC(C)(C)[S@](=O)N1Cc2cc(C(=O)N[C@H]3CCN(Cc4ccccc4)C3)nc(-c3cccc(-c4cccnc4)c3)c2[C@@H]1CCO | 1.12 ± 0.13 |  |
| CO[C@H](CN(C)S(=O)(=O)c1ccc(F)cc1)[C@H](C)CN(Cc1ccccc1Cl)[C@H](C)CO | 1.02 ± 0.04 |  |
| CCS(=O)(=O)NCC[C@H]1CC[C@@H](NS(=O)(=O)c2ccccc2C)[C@@H](CO)O1 | 0.9036 ± 0.004 |  |
| COc1ccc(cc1)S(=O)(=O)N1C[C@@]2(C1)CN([C@@H](CO)c1c2c2ccc(OC)cc2n1C)C(=O)CN(C)C | 0.95 ± 0.059 |  |

| SMILES | viability index [1] | viability index [2] |
| --- | --- | --- |
| C[C@H](CO)N1C[C@H](C)[C@H](CN(C)S(=O)(=O)c2cn(C)cn2)Oc2cc(C#Cc3cccc(F)c3)ccc2S1(=O)=O | 0.9878 ± 0.0014 |  |
| CNC[C@H]1OCCCC[C@@H](C)Oc2ccc(N)cc2C(=O)N([C@@H](C)CO)C[C@H]1C | 1.08 ± 0.018 |  |
| CCS(=O)(=O)N1[C@H](C#N)[C@@H](c2ccc(C#Cc3ccccc3F)cc2)[C@@H]1CO | 1.04 ± 0.019 |  |
| CCCNC(=O)N1[C@@H]2c3ccc(-c4ccc(OC)cc4)c(=O)n3C[C@H]1[C@H](CO)[C@H]2C(=O)NC1CCC1 | 1.06 ± 0.013 |  |
| O=C1CCC(=O)N[C@H](c2ccccc2)C/C=C\CCN1 | 1.05 ± 0.044 |  |
| OC[C@H]1Nc2ccc(-c3cccc(F)c3)cc2[C@@H]2[C@H]1CCN2Cc1ccc(F)cc1 | 1.04 ± 0.017 |  |
| COCC(=O)N1CC[C@@]2(CC1)CN([C@H](CO)c1[nH]c3cc(OC)ccc3c21)S(C)(=O)=O | 0.932 ± 0.053 |  |
| CCS(=O)(=O)N1CC[C@@]2(CC1)CN[C@@H](CO)c1c2c2ccc(OC)cc2n1C | 0.978 ± 0.034 |  |
| COc1ccc2c3c([C@H](CO)N(C[C@]33CCN(Cc4cccc(F)c4)CC3)C(=O)C3CC3)n(C)c2c1 | 1.02 ± 0.0091 |  |
| N#C[C@H]1[C@@H](c2ccc(-c3cccc(F)c3)cc2)[C@H](CO)N1C(=O)CN1CCOCC1 | 1.08 ± 0.032 |  |
| COc1ccccc1CN1[C@@H]2Cn3c(ccc(C4=CCCC4)c3=O)[C@H]1[C@@H](C(=O)N(C)C)[C@@H]2CO | 1.1 ± 0.023 |  |
| Cc1cccc(S(=O)(=O)N2C[C@H]3[C@@H](c4ccccc42)[C@H](CO)N3Cc2ccc3c(c2)OCO3)c1 | 1.01 ± 0.012 |  |
| O=C(C[C@@H]1CC[C@H]2[C@@H](COC[C@H](O)CN2C(=O)Nc2ccc(F)cc2)O1)NC1CCC1 | 0.971 ± 0.012 |  |
| COc1cccc(-c2ccc3c(c2)[C@@H]2[C@@H](CCN2S(=O)(=O)C2=NC(C)C=N2)[C@H](CO)N3C)c1 (stereo partly specified) | 0.982 ± 0.024 |  |
| C[C@@H]1CN([C@H](C)CO)C(=O)c2cccc(NC(=O)c3ccncc3)c2O[C@H]1CN(C)Cc1ccc2c(c1)OCO2 | 0.966 ± 0.042 |  |
| C[C@@H]1CN([C@H](C)CO)C(=O)c2ccccc2-c2ccccc2CO[C@H]1CN(C)C(=O)[C@@H]1CCCN1C | 1.03 ± 0.03 |  |
| CN(C)C(=O)c1cccc(-c2ccccc2[C@@H]2[C@@H](CO)N(C(=O)C3CCCCC3)[C@H]2C#N)c1 | 1.15 ± 0.1 |  |
| CO[C@H](CN(C)C(=O)C1CCOCC1)[C@H](C)CN(C(=O)Nc1ccc(C(F)(F)F)cc1)[C@H](C)CO | 0.968 ± 0.034 |  |
| CN1C(=O)c2cc(NS(=O)(=O)c3cccc(F)c3)ccc2OC[C@H]2O[C@H](CC(=O)N3CCc4ccccc4C3)CC[C@@H]21 | 0.9956 ± 0.0048 |  |
| COc1ccc(C[C@@H]2CCn3nncc3COC[C@H](CC(C)C)NC2=O)cc1 | 1.04 ± 0.016 |  |
| Cc1ccccc1-c1ccc2c(c1)O[C@@H](CN(C)C(=O)Nc1ccc(C(F)(F)F)cc1)[C@@H](C)CN([C@@H](C)CO)S2(=O)=O | 0.838 ± 0.12 |  |
| COc1cccc(-c2ccc([C@@H]3[C@@H](CO)N4C(=O)CN(C(=O)c5cccnc5)C[C@H]34)cc2)c1 | 0.985 ± 0.039 |  |
| CC(C)[C@H]1C/C=C\CCNC(=O)[C@H](C)CC(=O)N1 | 1.025 ± 0.0092 |  |
| CC(C)NC(=O)N1CC2(C1)[C@H](c1ccccc1)[C@@H](CO)N2C(=O)C1CCOCC1 | 1.07 ± 0.11 |  |

| SMILES | viability index [1] | viability index [2] |
| --- | --- | --- |
| CCC(=O)N1[C@@H](C#N)[C@H](c2ccccc2-c2ccccc2)[C@@H]1CO | 1.08 ± 0.096 |  |
| O=C(Nc1cc(F)ccc1F)N1CC(=O)N2[C@@H](CO)[C@H](c3ccc(/C=C/c4ccccc4)cc3)[C@@H]2C1 | 1.08 ± 0.034 |  |
| CN1C(=O)c2cc(NC(=O)c3ccc(C(F)(F)F)cc3)ccc2OC[C@H]2O[C@H](CC(=O)NCc3ccc4c(c3)OCO4)CC[C@@H]21 | 0.963 ± 0.079 |  |
| C[C@@H]1CN([C@H](C)CO)C(=O)c2cccc(N(C)C)c2O[C@H]1CN(C)C(=O)Nc1ccc(F)cc1 | 1 ± 0.1 |  |
| C/C=C/c1ccc([C@H]2[C@@H](CO)N3CCCCN(S(=O)(=O)c4ccc(OC)cc4)C[C@H]23)cc1 | 0.951 ± 0.026 |  |
| O=C(C[C@@H]1CC[C@@H](NC(=O)C2CCOCC2)[C@@H](CO)O1)NCC1CCCCC1 | 1.13 ± 0.06 |  |
| COC(=O)C[C@@H]1CC[C@H]2[C@@H](COC[C@H](O)CN2S(=O)(=O)c2ccccc2OC)O1 | 1.06 ± 0.015 |  |
| O=C1C[C@H](c2ccccc2)C(=O)N[C@H](c2ccccc2)C/C=C\C[C@@H](c2ccccc2)N1 | 0.971 ± 0.049 |  |
| COc1ccc2c3c([nH]c2c1)[C@H](CO)N(Cc1nccs1)C[C@]31CCN(Cc2cccnc2)CC1 | 0.946 ± 0.081 |  |
| COc1cccc(-c2ccc([C@H]3[C@@H](CO)N4C(=O)CNC[C@@H]34)cc2)c1 | 1.05 ± 0.045 |  |
| C[C@H]1CN([C@@H](C)CO)C(=O)Cc2cc(NC(=O)CCC(F)(F)F)ccc2O[C@@H]1CN(C)CC1CC1 | 0.98 ± 0.017 |  |
| CC(C)NC(=O)N1[C@H](CO)[C@@H](c2ccccc2)[C@@H]1CN(C)C(=O)c1cccnc1 | 0.966 ± 0.068 |  |
| O=C(O)C[C@H]1C[C@@H]2c3cc(NC(=O)Cc4ccncc4)ccc3O[C@@H]2[C@H](CO)O1 | 1.05 ± 0.076 |  |
| CNC[C@@H]1Oc2c(N)cccc2C(=O)N([C@H](C)CO)C[C@@H]1C | 0.978 ± 0.067 |  |
| COc1ccc(NC(=O)N2C[C@@H](O)COC[C@@H]3O[C@@H](CC(=O)N4CCCCC4)CC[C@H]32)cc1 | 1.07 ± 0.068 |  |
| COc1ccccc1C#Cc1ccc([C@H]2[C@@H](C#N)N(C(=O)C3CCCC3)[C@H]2CO)cc1 |  | 0.583 ± 0.18 |
| COCC(=O)Nc1ccc2c(c1)[C@H]1C[C@H](CC(=O)N[C@H](C)c3ccccc3)O[C@H](CO)[C@H]1O2 | 1.091 ± 0.0092 |  |
| O=C(CC1CC1)N1CC(=O)N2[C@H](CO)[C@@H](c3ccc(/C=C/c4ccccc4)cc3)[C@@H]2C1 | 1.02 ± 0.029 |  |
| CN1CCN(C(=O)C[C@@H]2CC[C@H]3[C@@H](COc4ccc(NC(=O)C5CCOCC5)cc4C(=O)N3C)O2)CC1 | 1.09 ± 0.06 |  |
| C[C@H]1CN([C@@H](C)CO)C(=O)c2cc(/C=C/c3ccccc3)cnc2O[C@@H]1CN(C)C(=O)C1CCCCC1 |  | 0.643 ± 0.072 |
| N#C[C@@H]1[C@H](c2ccccc2-c2ccccc2F)[C@H](CO)N1C(=O)C1CCC1 | 1.07 ± 0.12 |  |
| C[C@H]1CN([C@@H](C)CO)C(=O)c2cc(NS(=O)(=O)c3ccc(F)cc3)ccc2O[C@@H]1CN(C)C(=O)Nc1ccccc1 | 1.11 ± 0.014 |  |
| Cc1noc(C)c1NC(=O)N(C)C[C@H]1OCc2cn(nn2)CCCC(=O)N([C@@H](C)CO)C[C@@H]1C | 1.03 ± 0.067 |  |
